Experimental findings from patent US8791267B2, “Biaryl PDE4 inhibitors for treating inflammatory, cardiovascular and CNS disorders” (Decode Genetics EHF, priority 2007, dated 2014) are described below.

Structures can show the parent of a compound that is named as a salt. Where two headings read alike, the source gives them in different places.

This experiment concerns sephadex bead stimulated LTE4 production in whole human blood (eosinophil activation). Type of experiment: cell-based. Particulars: read-out: IC50 in ex-vivo LTE4 assay.
The mark [1] stands for this setting: heparinized human whole blood, Sephadex G-15 stimulation, LTE4 by enzyme-linked immunoassay.

One may read the IC50 as the concentration that inhibits the measured activity by half.

For `COc1ccc(Cc2ccc(F)cc2)c(F)c1-c1cccc([N+](=O)[O-])c1` [P-050], the concentration for half-maximal inhibition (IC50) under setting [1] is less than 1000 nM.
For `COc1ccc(Cc2ccnn2C)cc1-c1ccc2c(c1)OCO2` [P-075, 5-(3-Benzo[1,3]dioxol-5-yl-4-methoxy-benzyl)-1-methyl-1H-pyrazole], under setting [1], the IC50 was less than 1000 nM.
On the same count and under the same terms, for `COc1ccc(Cc2ccc(NC(C)=O)cc2)c(F)c1-c1cccc([N+](=O)[O-])c1` [P-107] the value was less than 1000 nM.
Consider `COc1ccc(Cc2ccc(N)cc2)cc1-c1cccc([N+](=O)[O-])c1` [P-113], for which the IC50 under setting [1] is less than 1000 nM.
Still for that read-out and setting: then `COc1ccc(Cc2ccc(N)cc2)c(F)c1-c1cccc([N+](=O)[O-])c1` [P-136], with less than 1000 nM; and `COc1ccc(Cc2ccc(F)cc2)c(F)c1-c1cccc(Br)c1` [P-139], with less than 1000 nM; and `COc1ccc(Cc2ccc(F)cc2)cc1-c1cccc(C(C)=O)c1` [P-140, 1-[5′-(4-Fluoro-benzyl)-2′-methoxy-biphenyl-3-yl]-ethanone], with less than 1000 nM.
In the case of `COc1ccc(CN2C(=O)CC[C@@H]2CN)cc1-c1cccc([N+](=O)[O-])c1` [P-156, (R)-5-Aminomethyl-1-(6-methoxy-3′-nitro-biphenyl-3-ylmethyl)-pyrrolidin-2-one], under setting [1], the IC50 is less than 1000 nM.
Still for that read-out and setting: for `COc1ccc(Cc2ccc(F)cc2)c(C#N)c1-c1cccc([N+](=O)[O-])c1` [P-163, 3-(4-fluoro-benzyl)-6-methoxy-3′-nitro-biphenyl-2-carbonitrile] the value was less than 1000 nM; for `COc1ccc(Cc2ccc(NC(C)=O)cc2)c(F)c1-c1cccc(Br)c1` [P-168], less than 1000 nM; for `COc1ccc(Cc2ccc(CNC(=O)CN(C)C)cc2)c(F)c1-c1cccc([N+](=O)[O-])c1` [P-175], less than 1000 nM.
Consider `COc1ccc(Cc2ccc(NC(N)=O)cc2)c(F)c1-c1cccc([N+](=O)[O-])c1` [P-181], for which the IC50 under setting [1] was less than 1000 nM.
As to `COc1ccc(Cc2ccc(F)cc2)c(F)c1-c1cccc(Cl)c1` [P-187], the IC50 under setting [1] was less than 1000 nM.
Same read-out and setting: then `COc1ccc(Cc2ccc(NS(C)(=O)=O)cc2)c(F)c1-c1cccc(Br)c1` [P-200], with less than 1000 nM.
Take `COc1ccc(Cc2ccc(OC(N)=O)cc2)c(F)c1-c1cccc(Cl)c1` [P-221]: the IC50 (Homo sapiens) is less than 1000 nM.
`COc1ccc(Cc2cccc(OC(N)=O)c2)c(F)c1-c1cccc(Cl)c1` [P-222]: the IC50 (Homo sapiens) was less than 1000 nM.
For the molecule `COc1ccc(Cc2ccc(NS(C)(=O)=O)cc2)c(F)c1-c1cccc(Cl)c1` [P-227], under setting [1], the concentration for half-maximal inhibition (IC50) is less than 1000 nM.
The same measure, in the same setting: for `COc1ccc(Cc2ccc(CNC(N)=O)cc2)c(F)c1-c1cccc([N+](=O)[O-])c1` [P-237] the value was less than 1000 nM; for `COc1ccc(Cc2ccc3c(c2)OCO3)c(F)c1-c1cccc(Cl)c1` [P-242], less than 1000 nM.
On to `COc1ccc(Cc2ccc(NC(N)=O)cc2)c(F)c1-c1cccc(Cl)c1` [P-243, [4-(3′-chloro-2-fluoro-6-methoxy-biphenyl-3-ylmethyl)-phenyl]-urea], for which the IC50 under setting [1] was less than 1000 nM.
On to `CCNC(=O)Nc1ccc(Cc2ccc(OC)c(-c3cccc(Cl)c3)c2F)cc1` [P-250], for which the half-maximal inhibitory concentration (IC50) under setting [1] is less than 1000 nM.
Same read-out and setting: then `COc1ccc(Cc2ccc(NC(N)=O)cc2)c(F)c1-c1cccc(C(C)=O)c1` [P-269, [4-(3′-Acetyl-2-fluoro-6-methoxy-biphenyl-3-ylmethyl)-phenyl]urea], with less than 1000 nM; and `COc1ccc(Cc2ccc(CNC(N)=O)c(F)c2)c(F)c1-c1cccc(Cl)c1` [P-287], with less than 1000 nM.
Turning to `CCNC(=O)Nc1ncc(Cc2ccc(OC)c(-c3cccc(C(C)=O)c3)c2F)cn1` [P-315, 1-[5-(3′-Acetyl-2-fluoro-6-methoxy-biphenyl-3-ylmethyl)-pyrimidin-2-yl]-3-ethyl-urea], under setting [1], the IC50 was less than 1000 nM.
The same measure, in the same setting: then `CCNc1ccc(Cc2ccc(OC)c(-c3cccc(Cl)c3)c2F)cn1` [P-318], with less than 1000 nM; and `COc1ccc(Cc2cnc(N(C)C)nc2)c(F)c1-c1cccc(C(C)=O)c1` [P-325, 1-[3′-(2-Dimethylamino-pyrimidin-5-ylmethyl)-2′-fluoro-6′-methoxy-biphenyl-3-yl]-ethanone], with less than 1000 nM.
Same read-out and setting: then `COc1ccc(Cc2ccc(C(N)=O)nc2)c(F)c1-c1cccc(C(C)=O)c1` [P-328, 5-(3′-Acetyl-2-fluoro-6-methoxy-biphenyl-3-ylmethyl)-pyridine-2-carboxylic acid amide], with less than 1000 nM; and `COc1ccc(Cc2ccc(CNC(N)=O)c(F)c2)c(F)c1-c1cccc(C(C)=O)c1` [P-330], with less than 1000 nM.
For `COc1ccc(Cc2ccc(N(C)C)nc2)c(F)c1-c1cccc(C(C)=O)c1` [P-332, 1-[3′-(6-Dimethylamino-pyridin-3-ylmethyl)-2′-fluoro-6′-methoxy-biphenyl-3-yl]-ethanone], the IC50 under setting [1] was less than 1000 nM.
The same measure, in the same setting: then `CNc1ccc(Cc2ccc(OC)c(-c3cccc(C(C)=O)c3)c2F)cn1` [P-336], with less than 1000 nM; and `COc1ccc(Cc2ccc(N(C)C(N)=O)cc2)c(F)c1-c1cccc(C(C)=O)c1` [P-338, 1-[4-(3′-Acetyl-2-fluoro-6-methoxy-biphenyl-3-ylmethyl)-phenyl]-1-methyl-urea], with less than 1000 nM.
The same measure, in the same setting: then `CCNc1ccc(Cc2ccc(OC)c(-c3cccc(C(C)=O)c3)c2F)cn1` [P-339], with less than 1000 nM.
Consider `COC(=O)Nc1nnc(Cc2ccc(OC)c(-c3cccc(Cl)c3)c2F)s1` [P-342, Methyl[5-(3′-Chloro-2-fluoro-6-methoxy-biphenyl-3-ylmethyl)-[1,3,4]thiadiazol-2-yl]-carbamate], for which, for the setting “Homo sapiens”, the IC50 was less than 1000 nM.
`CCNC(=O)Nc1ccc(Cc2ccc(OC)c(-c3cccc(Cl)c3)c2F)cn1` [P-356]: under setting [1], the IC50 is less than 1000 nM.
In the case of `COc1ccc(Cc2ccc(NC(N)=O)cc2)cc1-c1cccc(Cl)c1` [P-378, [4-(3′-chloro-6-methoxy-biphenyl-3-ylmethyl)-phenyl]-urea], under setting [1], the IC50 is less than 1000 nM.
For the molecule `CCNC(=O)Nc1ccc(Cc2ccc(OC)c(-c3cccc(C#N)c3)c2F)cn1` [P-405, 1-[5-(3′-Cyano-2-fluoro-6-methoxy-biphenyl-3-ylmethyl)-pyridin-2-yl]-3-ethyl-urea hydrochloride salt], the IC50 under setting [1] was less than 1000 nM.
On to `COc1ccc(Cc2ccc(C(N)=O)nc2)c(F)c1-c1cccc(C#N)c1` [P-415, 5-(3′-Cyano-2-fluoro-6-methoxy-biphenyl-3-ylmethyl)-pyridine-2-carboxylic acid amide], for which the 50% inhibitory concentration (IC50) under setting [1] is less than 1000 nM.
`NC(=O)Nc1ccc(Cc2ccc(OC(F)F)c(-c3cccc(Cl)c3)c2)cc1` [P-420]: the half-maximal inhibitory concentration (IC50) under setting [1] was less than 1000 nM.
As for `COc1ccc(Oc2ccc(N)nc2)c(F)c1-c1cccc(C#N)c1` [P-439, 5-(3′-Cyano-2-fluoro-6-methoxy-biphenyl-3-yloxy)-pyridin-2-yl-ammonium chloride], the concentration for half-maximal inhibition (IC50) under setting [1] was less than 1000 nM.
